Experimental data from patent US11559536B2, “Compositions and methods for the treatment of inflammation in urological pathology” (Duke University, priority 2019, dated 2023).

Tests used:
Assay type in all cases: in vivo, rat
[1] = system: CP-induced cystitis; experiment: Forced swim assay, CP-induced cystitis; details: 48 h after CP; fluoxetine 5 mg/kg
Description: Not all treatments groups were used for all end points. Basically, animals were injected i.p. with a single dose of CP (150 mg/kg) or PBS as a control and 24 hr later end point analysis began. However, depending on the experiment, rats were also pretreated/treated with various inhibitors to assess the role of various pathways.
Rats were left in this cylinder for a 10 min training period. 24 h later (48 h after CP), rats were then placed back in the cylinder and recorded for 5 min (Logitech Webcam; Silicon Valley, Calif.). The recordings were quantified for time spent immobile by several blinded individuals and the average score used in each individual measurement. Immobility was defined as absence of movement except for those necessary for keeping the nose above water.

[2] = system: CP-induced cystitis; experiment: Bladder weight in CP-induced cystitis; details: 24 h after CP 150 mg/kg i.p.; GLY 2.5 mg/kg p.o.; Mesna 40 mg/kg
Description: (§1) Not all treatments groups were used for all end points. Basically, animals were injected i.p. with a single dose of CP (150 mg/kg) or PBS as a control and 24 hr later end point analysis began. However, depending on the experiment, rats were also pretreated/treated with various inhibitors to assess the role of various pathways. To assess a role for NLRP3, rats were given the NLRP3 inhibitor glyburide (Lamkanfi et al. (2009) The Journal of cell biology 187: 61-70) (GLY; 2.5 mg/kg in 10% ethanol in PBS, ≈800 μl/rat, p.o., (Hughes et al. (2014) American journal of physiology Renal physiology 306: F299-308) or vehicle as the control. GLY was given in the evening prior to CP administration (5 PM) and again 16 h later (9 AM). Four h later (1 PM), CP or PBS alone was injected (i.p). Additional doses of GLY were given 4 h (5 PM) and 20 h (9 AM) after CP injection. 24 h after CP injection animals were sacrificed or entered into the Evans blue protocol or behavior assays.
Bladder weights were recorded at the time of euthanasia.

[3] = system: CP-induced cystitis; experiment: Evans blue dye extravasation in the bladder, CP-induced cystitis
[4] = system: CP-induced cystitis; experiment: Histology and IbA1/AIF1 quantitation of activated microglia in fascia dentata, CP-induced cystitis; details: for density of activated microglia (IbA1/AIF1) in the fascia dentata: CP-treated rats with or without GLY or Mesna; for cells with morphology of activated microglia in the hippocampus (H&E): fascia dentata, CP-treated rats with or without GLY
Description: as §1
Whole brains were immersed in 10% neutral buffered formalin (RT, 48 h), sliced coronally and embedded in paraffin blocks with the cut hippocampal plane on the block face. Sections (10 μm) were then cut and stained with hematoxylin and eosin using routine methods. Sections were visualized using Olympus Vanox BH-2 microscope and analyzed by a board-certified pathologist (WTH) for evidence of inflammation and changes in microglia.
Coronal sections (10 μm) of the hippocampus were stained with anti-IbA1/AIF1 (1:500) (catalog NBP2-19019; Novus Biologicals, Centennial, Colo.) using standard methods and citrate antigen retrieval. HRP development was accomplished with the Vectastain ABC Staining Kit (Vector Laboratories, Burlingame, Calif.) using a secondary antibody provided. All sections were imaged on a Zeiss Axio Imager 2 microscope (Zeiss, Oberkochen, Germany) running Zen software (Zeiss), using the tiling and stitching feature to ensure the entire fascia dentata was visualized. Images were imported into NIS-Elements software (Nikon Co., Tokyo, Japan). One hemisphere was chosen and 600,000-700,000 μm^2 of the fascia dentata was demarcated as the region of interest (ROI). The number of microglia within this region was then counted. Microglia cells were defined as black/brown spots with two or greater associated tendrils and the number present in the ROI was counted. Microglial density was then calculated.

[5] = system: CP-induced cystitis
[6] = 24 h after CP 150 mg/kg i.p., GLY 2.5 mg/kg p.o., Mesna 40 mg/kg
[7] = started 24 h after CP, fluoxetine 5 mg/kg

SMILES	time spent immobile in forced swim assay [1]	bladder weight [2]	bladder inflammation (Evans blue extravasation) [3, 6]	density of activated microglia (IbA1/AIF1) in the fascia dentata [4]	cells with morphology of activated microglia in the hippocampus (H&E) [4]	sucrose preference (percentage of sucrose-laden water consumed) [5, 7]	bladder inflammation (Evans blue extravasation) ([3]; rat, in vivo)	sucrose preference (percentage of sucrose-laden water consumed) ([5]; rat, in vivo)
COc1ccc(Cl)cc1C(=O)NCCc1ccc(S(=O)(=O)NC(=O)NC2CCCCC2)cc1 [GLY, glyburide]	prevented	reduced	reduced	blocked to levels not significantly different from controls	not present	prevented		
O=P1(N(CCCl)CCCl)NCCCO1 (stereo not shown) [CP, cyclophosphamide]	significantly more time immobile	significantly increased		significantly increased density of microglia	present		significant increase in inflammation	significantly lower percentage of sucrose-laden water
O=S(=O)([O-])CCS.[Na+] [Mesna, 2-mercaptoethane sulfonate sodium]	prevented	blocked the changes in both endpoints to levels not significantly different from vehicle-treated controls	blocked the changes in both endpoints to levels not significantly different from vehicle-treated controls	blocked to levels not significantly different from controls		prevented		
CNCCC(Oc1ccc(C(F)(F)F)cc1)c1ccccc1 (stereo not shown) [fluoxetine]	prevented					prevented		

Like-named read-outs stand apart in the source and are kept apart here.
